Laboratory results reported in the RNAGym collection of RNA variant scans (doi:10.1093/nar/gkz1192).
The source gives no read counts; variants with many changes may rest on few reads.

B1: CPEB3 Ribozyme (parent)
chain: UAACAGGGGGCCACAGCAGAAGCGUUCACGUCGCAGCCCCUGUCAGAUUCUGGUGAAUCUGCGAAUUCUGCUGUAUAUCUC

Variants of: B1
Assay: self-cleavage, relative activity (ratio to wild type); higher = more cleavage; in vitro, sequencing
Procedure, shortened: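 Relative activity was defined as the cleaved/total read fraction for a variant divided by the same fraction for the unmutated ribozyme. CPEB3 self-cleaving ribozyme libraries were made by rounds of error-prone PCR, barcoded, and transcribed in vitro with T7 RNA polymerase for 5 hours at 37°C, and cleavage ran through transcription plus a 15 min DNase I step before EDTA. Illumina sequencing of template-switched reverse transcripts gave the reads, and DNA sequencing mapped the barcodes. Averages come from three batches, using variants with at least 5 reads.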

Row | Variant | self-cleavage
1 | UAACAGGGGGCCACAGCAGAAGCGUUCACGCCGCUGCCCCUGUCCGAUUCUGAGGAAUCUGCGAAUUCCGCUGUAUAUCUC | 0.08
2 | UAACAGGGGGCCACAGCAGAAGCGUUCACGCCGCUGCCCCUGUCAGAUUCUGGUGGAUCUGCGAAUCCUGCCGUAUACCUC | 0.04
3 | UAACAGGGGGCCACAGCAGAAGCGUUCACGACGCAGCCCCUGCCAGAUUCUGGUGAAUCUGCGGAUUCAGCUGUAUAUCUC | 0.14
4 | UAACAGGGGGCCACAGCAGAAGCGUUCACGACGCAGCCCCUGUCAGAUUCUGGUGAAUCUGCGAAUUCCGCAGUAUAUCUC | 0.11
5 | UAACAGGGGGCCACAGCAGAAGCGUUCACGACGCAGCCCCUGUCAGACUCUGGUGAGUCUGCGAAUUCUGCCGUAUAUCUC | 0.41
6 | UAACAGGGGGCCACAGCAGAAGCGUUCACGACGCAGCCCCUGUCAGAUCCUGGUGAAUCUGCGAGUUCCGCAGUAUAUCUC | 0.06
7 | UAACAGGGGGCCACAGCAGAAGCGUUCACGACGCAGCCCCUGUCAGAUUCUGGUGAAUCCGCGAAUUCUGCUGUAUACCUC | 0.14
8 | UAACAGGGGGCCACAGCAGAAGCGUUCACGACGCAGCCCCUGUCAGAAUCUGGUGAACCUGCGAAUACUGCUGUAUAUCUC | 0.1
9 | UAACAGGGGGCCACAGCAGAAGCGUUCACGACGCAGCCCCUGUCAGAUUCUGGAGAAUCUGCCAAUUCUGCUGCAUAUCUC | 0.57
10 | UAACAGGGGGCCACAGCAGAAGCGUUCACGCCGCGGCCCCUGUCAGAUUCUGGUGAAUCUGCGAAUUCCGCUGUAUAUCUC | 0.56
11 | UAACAGGGGGCCACAGCAGAAGCGUUCACGCCGCGGCCCCUGUCUGAUUCUGGAGGAUCUGCGAAUUCUGCAGUAUAUCUC | 0.11
12 | UAACAGGGGGCCACAGCAGAAGCGUUCACGCCGCGGCCCGUGUCAGAUUCCGGUGAAUCUGCGAAUUCUGCUGUAUAUCUC | 0.18
13 | UAACAGGGGGCCACAGCAGAAGCGUUCACGACGCAGCCCCUGUCAGAUUCUGGUGAAUCUGCGAAUCCUGCUGAAUAUCUC | 0.14
14 | UAACAGGGGGCCACAGCAGAAGCGUUCACGCCGCAGCCCCUGUCCGAUUCUGGUGAAUCCGCGAAUUCUGCUGUAUAUCUC | 0.32
15 | UAACAGGGGGCCACAGCAGAAGCGUUCACGACGCAGCCCCUGCCAGAUUCUGGUGAAUCUGCGAAUUCUGCCGUAUAUCUC | 0.42
16 | UAACAGGGGGCCACAGCAGAAGCGUUCACGACGCAGCCCCUGUCAGAUCCUGGUGGAUCUGCGAAUUCUGCUGUAUAUCUC | 0.6
17 | UAACAGGGGGCCACAGCAGAAGCGUUCACGCCGCAGCCCCUGUCCGAUUCUGGUGAAUCUGCGAAUUCUGCUGUAUAUCCC | 0.2

Row | Variant | self-cleavage
18 | UAACAGGGGGCCACAGCAGAAGCGUUCACGACGCAGCCCCUGUCAGAUUCUGGUGAAUCUGCGAAUUCUGCGGUAUAACUC | 0.73
19 | UAACAGGGGGCCACAGCAGAAGCGUUCACGCCGCAGCCCCUGUCGGAUUCUGGGGAAUCUGCGAAUUCUGCUGUACAUCUC | 0.33
20 | UAACAGGGGGCCACAGCAGAAGCGUUCACGCCGCUGCCCCUGUCUGAUUCGGAGGAAUCUGCGAAUUCUGCUGUACAUCUC | 0.13
21 | UAACAGGGGGCCACAGCAGAAGCGUUCACGCCGCAGCCCCUGUCUGAUUCUGGUGAGUCUGCGUAUUCUGACGUAUAUCUC | 0.11
22 | UAACAGGGGGCCACAGCAGAAGCGUUCACGACGCAGCCCCUGUCAGAUUCAGGUGAAUCUGCGAAUUCUGCCGUAUAUCUC | 0.7
23 | UAACAGGGGGCCACAGCAGAAGCGUUCACGACGCAGCCCCUGUCAGAUUCAGGUGAAUCUGCGUGUUCUGCUGUAUAUCUC | 0.17
24 | UAACAGGGGGCCACAGCAGAAGCGUUCACGCCGCGGCCCCUGUCAGAUUCUGGUGAAUCUGCGAAUACUGCUGUAUAUCUC | 0.55
25 | UAACAGGGGGCCACAGCAGAAGCGUUCACGCCGCAGCCCCUGUCCGAUUCUGGUGAACCUGCGAGUUCUGCUCUAUAUCUC | 0.09
26 | UAACAGGGGGCCACAGCAGAAGCGUUCACGCCGCGGCCCCUGUCAGAUUCUGGUGAAUCUGCGAAUUCUGCUGCAUAUCUC | 1.18
27 | UAACAGGGGGCCACAGCAGAAGCGUUCACGCCGCAGCCCCUGUCCGAUUCUGGUGGACCUGCGAAUUCUGCUGUAUAUCUC | 0.2
28 | UAACAGGGGGCCACAGCAGAAGCGUUCACGCCGCAGCCCCUGUCUGAUUCUGGUGAAUCUGCGAAUUCUGGUGUAUAUCUC | 0.14
29 | UAACAGGGGGCCACAGCAGAAGCGUUCACGACGCAGCCCCUGCCAGAUUCUGGUGAAUCUGCGAAUUCUGCUGUUUAUCUC | 0.39
30 | UAACAGGGGGCCACAGCAGAAGCGUUCACGCCGCAGCCCCUGUCCGAUUCUGGUGAAUCUGCGAAUUCCGCUGUAUAUCUC | 0.09
31 | UAACAGGGGGCCACAGCAGAAGCGUUCACGACGCAGCCCCUGCCAGAUUCUGGUGAAUCUGCGAAGUCUGCUGUAUAUCCC | 0.18
32 | UAACAGGGGGCCACAGCAGAAGCGUUCACGCCGCAGCCCCUGUCAGGUUCUGGUGAAUCUGCAAAUUCUGCUGUAUAUCUC | 0.54
33 | UAACAGGGGGCCACAGCAGAAGCGUUCACGCCGCAGCCCCUGUCGGAUUCUGGCGAGUCUGCGAAUUCUGUUGUAUAUCUC | 0.04
34 | UAACAGGGGGCCACAGCAGAAGCGUUCACGCCGCAGCCCCUGUCUGUUUCAGGUGAGUCUGCGAAUCCUGCUGUUUAUCUC | 0.04
